Measured values published in publication PMC4336329 (PLoS ONE, 2015).
Screen size: about 310,000 compounds; about 2,200 (0.71%) showed an effect of 50% or more. Effects have a minus sign here. The list shows a part of the results.

Target: human ether-à-go-go-related gene (hERG) potassium channel (human, UniProt Q12809)
Assay: primary screen, population patch clamp on CHO cells stably expressing hERG

Chain of human ether-à-go-go-related gene (hERG) potassium channel (Q12809 whole entry, looked up): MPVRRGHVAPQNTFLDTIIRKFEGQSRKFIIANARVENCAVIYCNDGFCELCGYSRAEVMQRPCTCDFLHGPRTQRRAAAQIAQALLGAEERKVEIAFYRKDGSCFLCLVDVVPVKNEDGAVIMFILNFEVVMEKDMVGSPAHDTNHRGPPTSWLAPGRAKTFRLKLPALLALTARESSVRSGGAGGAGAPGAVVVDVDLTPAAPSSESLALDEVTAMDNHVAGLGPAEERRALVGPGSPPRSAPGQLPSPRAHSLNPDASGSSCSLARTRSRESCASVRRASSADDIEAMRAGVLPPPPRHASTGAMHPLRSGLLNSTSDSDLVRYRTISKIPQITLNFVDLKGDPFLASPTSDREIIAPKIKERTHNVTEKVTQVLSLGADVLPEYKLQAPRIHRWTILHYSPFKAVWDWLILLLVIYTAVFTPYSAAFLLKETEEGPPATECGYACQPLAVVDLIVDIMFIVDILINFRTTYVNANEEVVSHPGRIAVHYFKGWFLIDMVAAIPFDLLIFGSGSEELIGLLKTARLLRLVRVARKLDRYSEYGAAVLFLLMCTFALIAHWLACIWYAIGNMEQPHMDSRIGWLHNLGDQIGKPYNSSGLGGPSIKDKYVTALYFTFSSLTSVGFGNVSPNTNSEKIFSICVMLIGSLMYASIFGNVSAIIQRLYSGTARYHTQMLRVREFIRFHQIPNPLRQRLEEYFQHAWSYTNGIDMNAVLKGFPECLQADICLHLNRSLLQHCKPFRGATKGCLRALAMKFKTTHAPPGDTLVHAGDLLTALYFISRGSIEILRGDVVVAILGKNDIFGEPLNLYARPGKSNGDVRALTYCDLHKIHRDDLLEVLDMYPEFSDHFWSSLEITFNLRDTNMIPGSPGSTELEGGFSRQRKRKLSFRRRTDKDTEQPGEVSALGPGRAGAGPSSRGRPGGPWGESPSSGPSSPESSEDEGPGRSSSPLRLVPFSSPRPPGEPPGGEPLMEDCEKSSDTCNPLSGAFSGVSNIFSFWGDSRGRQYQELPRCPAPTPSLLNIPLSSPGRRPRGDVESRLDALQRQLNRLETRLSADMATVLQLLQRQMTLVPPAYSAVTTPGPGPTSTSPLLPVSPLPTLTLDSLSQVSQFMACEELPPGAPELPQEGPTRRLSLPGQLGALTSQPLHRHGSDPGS

SMILES | hERG current change (%, negative = inhibition) at 1uM [%]
COc1cc(C(=O)CSc2nncn2C)cc(OC)c1OC | 3.79
Cc1ccccc1OCC(=O)N/N=C/c1cccn1C | 14.6
Cc1ccccc1Cn1c(C(C)O)nc2ccccc21 (stereo not drawn) | 11.6
CC1CCN(CC(=O)Nc2ccc(S(=O)(=O)N3CCCCC3)cc2)CC1 | -1.04
Cc1cccn2c(=O)c(C=C(C#N)C#N)c(N3CCN(c4cccc(Cl)c4)CC3)nc12 | 8.05
O=C(CNCCC1=CCCCC1)Nc1ccc(N2CCCCCC2)cc1.O=C(O)C(=O)O | 16.5
CCN(CC)c1nc(N)c2c(N)nc3c(c2c1C#N)CC(c1ccccc1)O3 (stereo not drawn) | 11.5
COc1cccc(CN2CCN(C(=O)c3cccc4ccccc34)CC2)c1.O=C(O)C(=O)O | 5.1
CCOc1ccc(Br)cc1S(=O)(=O)NCCN(C)C | 9.99
CC1CN(C(=S)Nc2ccccc2C(F)(F)F)CC(C)O1 (stereo not drawn) | -6.65
CC/C(=N\NC(=S)Nc1cccc(C)c1)c1ccccc1 | 11.7
COc1ccc(Cc2nnc(NC(=O)c3ccccc3F)s2)cc1 | 18.9
COc1ccc(-n2c(-c3ccccc3)cc3c2CCCC3=O)cc1 | 2.11
C[C@H](N)c1nnc(SCc2c(Cl)cccc2Cl)o1.Cl | 5.41
CON/C=N/C(=S)Nc1ncc(C(F)(F)F)cc1Cl | 13.9
CCOC(=O)C(c1ccccc1)N1CCN(c2ccc(OC)cc2)CC1 (stereo not drawn) | 11.7
O=S(=O)(Nc1ccc2c(c1)OCO2)c1cccs1 | 11.6
COC(=O)c1ccc(NC(=O)C2CCN(C(=O)Nc3ccccc3)CC2)cc1 | 1.94
COC(=O)Nc1nc2ccc(Sc3ccccc3)cc2[nH]1 | 14.4
CCOC(=O)c1c(C(C)(C)C)oc2ccc(OCC#N)cc12 | 7.28
CC(=O)c1ccc(N(CC(=O)NC2CCCC2)C(=O)CNC(=O)c2cccs2)cc1 | 12.2
CCOC(=O)C1CCCN(C2=NC(=O)/C(=C/c3ccc(O)c(OC)c3)S2)C1 (stereo not drawn) | -10.8
COc1ccc(CN(C)C(=O)CNC(=O)Cc2cccc3ccccc23)c(OC)c1OC | 8.2

SMILES | hERG current change (%, negative = inhibition) at 1uM [%]
CC(=O)C(C(C)=O)c1cc(NS(=O)(=O)c2ccccc2)ccc1NS(=O)(=O)c1ccccc1 | 13.1
O=C(CSc1ccc(Br)cc1)NC1CCS(=O)(=O)C1 (stereo not drawn) | 11
C/C(=N\NC(=O)c1ccccc1OCc1ccc(F)cc1)c1ccccn1 | 11.3
Cc1cc(C)n(-c2nc(NCC3CCCO3)c3c4c(sc3n2)COC(C)(C)C4)n1 (stereo not drawn) | 2.09
COc1ccc(OC)c(S(=O)(=O)N2CCCC(C(=O)NCc3ccccn3)C2)c1 (stereo not drawn) | 9.02
O=C(Cc1cccs1)N1CCCC(c2nc3c(nnn3Cc3cccc(Cl)c3)c(=O)[nH]2)C1 (stereo not drawn) | 3.24
O=S(=O)(Nc1ncccn1)c1ccc(NC(=S)NCc2cccnc2)cc1 | 11.3
COc1ccc(CCN2CC3=C(C2=O)C(c2ccccc2)NC(=O)N3C)cc1OC (stereo not drawn) | -4.27
Nc1cccc2c1C(=O)N(C(=O)/C=C/c1cccc(F)c1)C2=O | 22.7
O=C(O)c1nc(N2CCCC2)ncc1Cl | 17.3
COc1ccccc1N1CCN(C(=O)c2ccc3[nH]c4c(c3c2)CC(C)CC4)CC1 (stereo not drawn) | 14.1
O=C1Oc2ccccc2C2(O)C3CCCCCC3C12 (stereo not drawn) | -5.84
O=C(/C=C/Nc1ccc(Cc2ccc(N/C=C/C(=O)C(F)(F)F)cc2)cc1)C(F)(F)F | 4.84
COc1cccc(C(=O)NCCSc2ccc(Br)cc2)c1 | 12.8
COc1ccc(Cl)cc1S(=O)(=O)NC(C)C(=O)NCc1ccccn1 (stereo not drawn) | 9.19
CCOC(=O)C1CCCN(CCC(=O)Nc2ccc(Br)cc2)C1.Cl (stereo not drawn) | 5.56
S=c1[nH]nc(Cc2sc(-c3ccccc3)nc2-c2ccccc2)o1 | 11.5
CCN1C=C(Cc2ccc(F)cc2)C2=C(C1)C(c1ccc(F)cc1)C(C#N)=C(N)O2 (stereo not drawn) | 6.93
O=C(O)/C(=C\C(=O)c1ccccc1)Nc1ccccc1 | 7.04
O=C(Nc1ccc(N2CCCC2)cc1)c1cc2ccccc2o1 | 12.4
CC(C)CNC(=O)CSc1nnc(-c2cccc(S(=O)(=O)N3CCCCC3)c2)o1 | 9.54
NC(=O)c1c(NC(=O)Cn2cc([N+](=O)[O-])cn2)sc2c1CCCC2 | 2.68
